Test results: the supplement of paper PMC7726561
Over roughly 1,400 sequences, “thermal melting temperature (Tm) of peptide-HLA complex” has its median near 60; the lowest 2% begin near 45. The list shows a part of the results.

B1: unnamed (peptide)
chain: APRNSAELTVI
B2: unnamed (peptide)
chain: TPWQPPTVL
B3: unnamed (peptide)
chain: KPYSPLASL
B4: unnamed (peptide)
chain: SPRPVVVET
B5: unnamed (peptide)
chain: MGPQKALETI
B6: unnamed (peptide)
chain: SPATWRLGL
B7: unnamed (peptide)
chain: GPALGRSFL
B8: unnamed (peptide)
chain: MPRNGTGVLIL
B9: unnamed (peptide)
chain: APRWLEEEAAL
B10: unnamed (peptide)
chain: YPRISVNNVL
B11: unnamed (peptide)
chain: YPRMQVTVF
B12: unnamed (peptide)
chain: QPIDNVSRNLL
B13: unnamed (peptide)
chain: RPLTKNAL
B14: unnamed (peptide)
chain: RPRNVPVIT
B15: unnamed (peptide)
chain: NPYSRLMAL
B16: unnamed (peptide)
chain: LPAGSRVEL
B17: unnamed (peptide)
chain: IPAKPPVSF
B18: unnamed (peptide)
chain: IPKPLNPAL
B19: unnamed (peptide)
chain: RPKALTQVL
B20: unnamed (peptide)
chain: LPWPARPAL
B21: unnamed (peptide)
chain: IVDSARSIL
B22: unnamed (peptide)
chain: QPRNLLLAL
B23: unnamed (peptide)
chain: LPSLSAHEL
B24: unnamed (peptide)
chain: IPNERTMQL
B25: unnamed (peptide)
chain: NPASPPLSL
B26: unnamed (peptide)
chain: RPQRATSNVF
B27: unnamed (peptide)
chain: APDSQRLKLL
B28: unnamed (peptide)
chain: TPKNTSVSL
B29: unnamed (peptide)
chain: IPRPVDGVEV
B30: unnamed (peptide)
chain: SPRVTVAQL
B31: unnamed (peptide)
chain: RPYGVGLLI
B32: unnamed (peptide)
chain: APGPPGRSM
B33: unnamed (peptide)
chain: GPHSPILSL
B34: unnamed (peptide)
chain: WPYGNRQEI
B35: unnamed (peptide)
chain: KPRDVTNFTV
B36: unnamed (peptide)
chain: TPRIQGLTV

target: HLA-B*07:02; experiment: thermal melting temperature (Tm) of peptide-HLA complex; higher = more thermostable pHLA complex; details: C1R-B*07:02
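Note: cell lysates heated 10 min at 37–73 °C, remaining pHLA pulled down with pan-class I antibody, peptides quantified by DIA-MS versus 37 °C, Tm where half the complex is lost.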

| Sequence | thermal melting temperature [°C] |
| --- | --- |
| B1 | 61 |
| B2 | 62 |
| B3 | 56.8 |
| B4 | 55 |
| B5 | 56.5 |
| B6 | 63.2 |
| B7 | 62.1 |
| B8 | 59.4 |
| B9 | 62.7 |
| B10 | 60.7 |
| B11 | 61.9 |
| B12 | 59.3 |
| B13 | 60 |
| B14 | 48.3 |
| B15 | 61.3 |
| B16 | 60.2 |
| B17 | 62 |
| B18 | 59.5 |

| Sequence | thermal melting temperature [°C] |
| --- | --- |
| B19 | 61 |
| B20 | 61.8 |
| B21 | 57.8 |
| B22 | 61.2 |
| B23 | 57.3 |
| B24 | 60.9 |
| B25 | 62.2 |
| B26 | 58.2 |
| B27 | 60.1 |
| B28 | 56 |
| B29 | 60.3 |
| B30 | 59.5 |
| B31 | 59 |
| B32 | 58.4 |
| B33 | 58.7 |
| B34 | 59.3 |
| B35 | 56.5 |
| B36 | 60.4 |
